# Measurements published in the supplement of paper PMC3334620.
# In all, about 33,000 sequences were measured (“E-score (-0.5 to 0.5)”: median about -0.011, highest 2% from about 0.28 on). The list shows a part of the results.
# Target: T1, Gcr1 (UniProt P07261)
# T1 sequence: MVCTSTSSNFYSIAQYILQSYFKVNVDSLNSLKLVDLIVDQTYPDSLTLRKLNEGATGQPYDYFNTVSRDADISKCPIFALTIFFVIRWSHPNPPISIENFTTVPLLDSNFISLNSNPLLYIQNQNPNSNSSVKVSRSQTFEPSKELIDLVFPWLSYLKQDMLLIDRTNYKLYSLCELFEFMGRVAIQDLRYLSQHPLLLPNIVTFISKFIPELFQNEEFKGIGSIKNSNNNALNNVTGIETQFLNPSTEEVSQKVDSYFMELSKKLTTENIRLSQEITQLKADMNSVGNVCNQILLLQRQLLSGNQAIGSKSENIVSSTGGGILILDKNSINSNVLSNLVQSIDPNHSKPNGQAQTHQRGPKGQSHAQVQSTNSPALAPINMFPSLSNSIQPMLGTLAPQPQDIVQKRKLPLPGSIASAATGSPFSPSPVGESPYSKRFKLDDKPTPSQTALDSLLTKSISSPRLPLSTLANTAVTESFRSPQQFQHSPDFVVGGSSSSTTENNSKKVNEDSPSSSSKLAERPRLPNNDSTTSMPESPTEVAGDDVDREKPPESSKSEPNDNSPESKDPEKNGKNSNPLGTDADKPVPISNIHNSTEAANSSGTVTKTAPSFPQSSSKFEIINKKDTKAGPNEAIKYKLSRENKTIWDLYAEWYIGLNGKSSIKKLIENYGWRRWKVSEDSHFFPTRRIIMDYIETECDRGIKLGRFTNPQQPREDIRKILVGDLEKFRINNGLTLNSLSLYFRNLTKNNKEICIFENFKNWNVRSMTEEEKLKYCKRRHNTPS
# Assay: PBM E-score (8-mer binding enrichment) (E-score (-0.5 to 0.5)); higher = stronger / more preferred TF binding; most listed sequences are background and not binding sites
# Settings: protein concentration: 100 nM; construct: GST-full length
# Experimental: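 Universal 'all 10-mer' protein binding microarrays (Agilent AMADID 015681) probed with GST-tagged S. cerevisiae TFs (full-length or DBD) made by in vitro transcription/translation (PURExpress), about 100-200 nM. Bound TF was detected with fluorescent anti-GST. Each ungapped 8-mer (which stands for itself and its reverse complement) is scored by the PBM enrichment score (E-score), a modified Wilcoxon-Mann-Whitney statistic from -0.5 to +0.5, computed with the Universal PBM Analysis Suite. Scale: above 0.35 generally sequence-specific binding.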
row,Sequence,PBM E-score
1,ACACTTAA,0.0453
2,CTTGCTAC,-0.134
3,ACTGGATA,0.108
4,TAGAGATA,0.0586
5,CCGACGTC,-0.205
6,ACTCCTCT,-0.00214
7,ACTGATAA,0.123
8,CTGGGCAC,0.239
9,CATACTAA,0.00569
10,CTATTCTC,0.0222
11,AGTTGTAC,-0.0696
12,CGAGAGTC,-0.0457
13,AAGAACAG,-0.0613
14,CGCAGCAG,0.0351
15,AGGCAGGA,-0.16
16,GTGCCGAA,0.101
17,ATCTGTCC,-0.0498
18,CGGCTTAC,-0.205
19,AAGGAAAT,-0.0571
20,AAGAGAAC,-0.0316
21,CCTAGCCA,-0.0616
22,ATATGGGA,-0.00549
23,AAATTGAA,-0.147
24,AGGAGGGG,0.122
25,AACTCGCA,0.0562

row,Sequence,PBM E-score
1,GCACATTA,-0.0914
2,CTCACGAA,-0.109
3,GACAGAAA,0.0677
4,AGCGGGTC,-0.102
5,GACAGCAC,-0.0932
6,CCATGGAG,0.00021
7,CAAAGAAG,0.184
8,TGCGCGCA,0.265
9,CTCACTCA,-0.0579
10,ATCCTTCC,-0.273
11,CGACAAGA,-0.0523
12,ATGGCTCG,-0.0906
13,CAGCATGC,-0.257
14,GGCACTCA,-0.189
15,ATAGGGAA,0.0857
16,GCTGCTCA,0.127
17,ATGGATCG,-0.224
18,CACAAGAG,0.0544
19,GAATGCAC,0.0479
20,ACCCGCTC,-0.0223
21,ATTAATGC,-0.0674
22,CGCAAAGA,-0.0565
23,GAAGCCAA,0.29
24,CACCGCTG,-0.0479
25,AGAACTAC,-0.128

row,Sequence,PBM E-score
1,CGGAAATC,-0.0578
2,ACGTTCAC,-0.22
3,CTGTACAC,-0.082
4,ACTATAGC,-0.152
5,CCATCTAC,-0.144
6,CCAGATGG,0.114
7,TAAGATTA,-0.0364
8,CTCGACGC,-0.076
9,CCTAGCAC,0.157
10,AATGACAC,-0.0813
11,ATATTAGC,0.0943
12,ATAGCGGC,0.072
13,AGGTCACG,-0.175
14,GGTAGGAC,-0.177
15,CCCGCCTC,-0.162
16,CCCGGAAG,0.182
17,AGACGCTA,0.293
18,AATGGCAA,-0.0531
19,ACCACCGC,-0.182
20,CAATTACA,-0.0309
21,CATAGAGA,-0.147
22,CCGGACAG,-0.286
23,ATTTGGAC,0.166
24,GCTACTAC,0.239
25,TAGCAAGA,-0.0531

row,Sequence,PBM E-score
1,AAGCACGT,0.202
2,CGGTCATA,-0.37
3,CTAAATAA,0.102
4,TACAATGA,0.0447
5,GGTGAGGA,-0.0681
6,ATTACCCC,-0.0683
7,CCGCGACA,0.0236
8,GCAATCAA,0.0455
9,AGCCCGGG,-0.0203
10,GCGGGGTA,-0.101
11,AATCGCCC,-0.26
12,AGGATCAT,-0.0661
13,CTATTCCA,0.112
14,AGCAACTG,0.0502
15,ACTAAAAT,0.209
16,TCGGACGA,-0.183
17,CAGAAGAA,0.212
18,AAACTGTT,0.00939
19,AACTCGTG,0.0132
20,CTGGACAC,0.172
21,AACATTCT,0.0927
22,GTCCTGAA,0.196
23,AATCCAGA,0.259
24,ATGCGGCG,0.105
25,CACATGCA,-0.118

row,Sequence,PBM E-score
1,AAGTGGAC,0.15
2,ATAGTGAG,-0.202
3,AGCCTAAA,0.0999
4,ATCAGGTA,0.0928
5,CCCTGTCG,-0.151
6,ATCTACAA,0.0342
7,CACCATGG,-0.087
8,GTAATCTA,0.0152
9,ACGCGCTC,-0.00866
10,AATAAATT,0.0276
11,TGCTATAA,-0.172
12,AAGGGGAC,-0.0201
13,ACATGCGC,-0.117
14,TACCTGGA,-0.0183
15,CGGCGACC,0.207
16,AGCTTCAC,0.102
17,CTTATTCC,-0.0914
18,AGCGCCAC,0.122
19,ATCAGGAG,0.0606
20,GAGCTCCC,-0.0043
21,ACTTAACC,-0.196
22,TGAAGTAA,-0.137
23,AAAAGATC,-0.0633
24,CGAGTAGC,-0.018
25,GTAAGTAA,-0.0882

row,Sequence,PBM E-score
1,GTAGATCA,0.0312
2,GAGATAAC,0.0116
3,ATAGAGAC,-0.109
4,ATACAGAC,0.0369
5,ATCGGCAG,-0.0842
6,ACTCACTA,-0.0547
7,ACAAACGG,-0.00297
8,AGAGCTCC,-0.238
9,GTAGGCTA,-0.259
10,ATACAACA,-0.0317
11,TAGGTCGA,-0.0729
12,CCCTTATC,-0.123
13,GAGATGCC,0.158
14,ATCAATAC,-0.217
15,GACAACGA,-0.00038
16,CGTTCGTC,-0.107
17,CATCGTGA,0.157
18,ATAGTGGA,0.376
19,GGCCCCTA,0.127
20,CTTTAGCC,-0.0647
21,CTGTGAAC,-0.0359
22,CCGGACCC,0.0907
23,CAGTTAAG,0.00707
24,ACGGCTAC,-0.0425
25,AGTTTCAG,-0.0643

row,Sequence,PBM E-score
1,ACCGGTCT,-0.212
2,ATGAAAAA,0.191
3,AAGGACGC,0.256
4,AAGTGGGT,0.133
5,TGAGGAAA,-0.0975
6,CGTGAAGC,-0.0584
7,ACCAACGT,0.0312
8,AAGAGTAG,0.0308
9,ACATTCGC,0.0746
10,AAGCGCGT,0.0945
11,ATGCTTGA,0.162
12,AAAGACCC,-0.0472
13,ATCAGCAA,-0.194
14,ACTGGAGA,-0.0302
15,ATCACAAG,0.077
16,TCGATCCA,-0.19
17,ATGCGCGA,-0.0291
18,CTCCCGGA,-0.0233
19,AAGATGCG,0.198
20,AACACGAA,0.206
21,GACGTGTA,-0.0343
22,CTCTTTTC,-0.0202
